# Test results from the BET-seq Pho4 binding data (Le et al. 2018).
# The other results are listed elsewhere or left out. The energies were worked out here from pooled read counts, against the library average; single values are noisy.
# Biological target: T1, Pho4 (S. cerevisiae) (UniProt P07270)
# T1 sequence: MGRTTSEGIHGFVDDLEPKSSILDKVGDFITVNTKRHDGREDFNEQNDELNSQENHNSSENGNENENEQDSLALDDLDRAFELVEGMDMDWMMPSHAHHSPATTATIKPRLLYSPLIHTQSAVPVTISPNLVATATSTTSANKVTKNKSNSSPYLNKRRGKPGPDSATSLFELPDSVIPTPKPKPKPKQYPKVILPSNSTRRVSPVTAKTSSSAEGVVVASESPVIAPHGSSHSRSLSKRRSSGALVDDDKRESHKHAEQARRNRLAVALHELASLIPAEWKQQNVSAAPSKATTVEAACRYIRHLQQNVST
# Experiment: relative binding free energy (BET-seq); higher = weaker binding
# Settings: reference: library average
row,Sequence,relative binding free energy [kcal/mol]
1,CGAATCACGTGGGGTT,0.12
2,GAGAACACGTGTGTGG,0.09
3,TACGTCACGTGTGCAG,0.17
4,GCTGTCACGTGTTTAG,0.17
5,GGAGGCACGTGTAATG,-0.01
6,TGGTTCACGTGCGTCA,0.32
7,TGCGACACGTGGGGAG,-0.03
8,AATTGCACGTGTGTTG,0.1
9,CGGAACACGTGGTAGT,0.08
10,AGTATCACGTGTGCTA,0.11
11,TGGTTCACGTGCTACG,0.28
12,TTCTGCACGTGTGGAG,0.04
13,TAAGGCACGTGGCAGT,-0.31
14,ATTAGCACGTGTAGGT,0
15,GGTGTCACGTGAGTCT,0.31
16,TTAAACACGTGCTTTT,0.12
17,GGCTACACGTGCAGGG,0.2
18,TTCTGCACGTGTATAT,0.02
19,ATGGGCACGTGAGGCC,0.07
20,GGAAGCACGTGTCAGG,-0.08
21,TTGGACACGTGGGCGT,-0.11

row,Sequence,relative binding free energy [kcal/mol]
1,GGCCGCACGTGGTTTG,0
2,TGTTGCACGTGTGGCG,0.08
3,GGGGGCACGTGTTTCG,-0.02
4,GTGCACACGTGAGTGT,0.11
5,GTGCTCACGTGTGATA,0.34
6,TGTGTCACGTGGGAAA,0.03
7,AGATGCACGTGGGTCG,-0.18
8,GGATGCACGTGTGATC,0.19
9,AGCGTCACGTGGTAAG,0.06
10,GTAGACACGTGCGGGA,0.04
11,ATTGGCACGTGCTGCG,-0.3
12,TTGATCACGTGGGTCT,0
13,GTTATCACGTGTCGTA,0.23
14,AGGGGCACGTGTGTTG,-0.16
15,GTTTACACGTGGGGTA,0.01
16,CGGGACACGTGTGGAT,0.08
17,TTGAGCACGTGTGGAG,0.04
18,ATCGTCACGTGGGGAT,-0.05
19,GCTTGCACGTGTTGGT,0.13
20,AAATACACGTGGTTTG,0.04
21,CGGGTCACGTGTGACG,0.22

row,Sequence,relative binding free energy [kcal/mol]
1,GATTTCACGTGGTCTA,0.36
2,TTCAACACGTGTAGGT,-0.01
3,AGTCACACGTGGGATT,0.09
4,AAAGGCACGTGGCGTT,-0.07
5,TGGTCCACGTGGAGTT,0.04
6,GGTAACACGTGGCAGT,0.02
7,GATGACACGTGGTTAT,0.08
8,TCGGTCACGTGTAAGG,0.13
9,CTCGGCACGTGTTTGG,-0.04
10,AATTGCACGTGTTTCG,0.01
11,TTTTCCACGTGTTATT,0.11
12,TTGGACACGTGTCTTG,0.1
13,GTTTACACGTGCTGAG,0.03
14,CATGGCACGTGGTGTC,-0.2
15,TTGTGCACGTGCATAG,-0.02
16,TAGGGCACGTGTGAAT,-0.03
17,TGACGCACGTGGGGTG,-0.43
18,CTTGTCACGTGTGGGG,0.21
19,GTTATCACGTGGAGTA,0.04
20,GTGTACACGTGGAGCT,0.09
21,TTAGGCACGTGCGCAT,-0.25
